According to PubChem BioAssay AID1458 (National Center for Advancing Translational Sciences (NCATS), 2008):
The campaign covered roughly 210,000 compounds. About 5,900 (2.8%) were called active. The shares of active, inactive and inconclusive entries below differ from those in the screen. Calls come from the whole dose curve; as a rule, active = well fitted activation curve with a large enough effect; inconclusive = small, poorly fitted or top-dose-only effect; inactive = no such curve, though single readings can be large or run the other way. Potencies of inconclusive entries are doubtful fits and often do not repeat.

assay: qHTS Assay for Enhancers of SMN2 Splice Variant Expression; conditions: HEK293 SMN2-luciferase splicing reporter, luminescence, 30-36 h; activity change, positive = activation: at 46.1 µM (top of the series); note: nearly all actives have a fitted effect of over 55% in size; for activity change, positive = activation: % of control where 0% means no effect
In short: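 qHTS luciferase splicing reporter: luminescence rises when SMN2 exon 7 is included in transfected HEK293 cells. Compound exposure lasted 30-36 h at 37C, with 4.5 mM final sodium butyrate as control, followed by a ONE-Glo read.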
Potency is the fitted concentration of half-maximal effect; tags give direction and shape of the fitted curve.

SMILES | Potency | activity change, positive = activation
CC1CCCN(c2ccc(C(=O)NCc3ccccc3)cn2)C1 (configuration not stated) | inconclusive: 35.5 µM [activator, single point] | –
Cc1ccc(/C=N/NC(=O)c2ccoc2C)s1 | active: 10 µM | –
Cc1nnsc1Sc1ccccc1 | – | inactive: 4.65%
Cc1cccc(C(=O)Nc2sc(C)c(-c3ccccc3)c2C#N)c1 | inconclusive: 31.6 µM [activator, single point] | –
CCc1ccccc1NC(=O)c1cnc2scc(C)n2c1=O | inconclusive: 31.6 µM [activator, single point] | –
Cc1nc2ccc(NC(=O)Cc3ccc4c(c3)OCCO4)cc2s1 | – | inactive: 2.85%
CCOc1ccc(/C=C/c2nc3ccccc3n2S(=O)(=O)c2cccc(Cl)c2)cc1 | active: 5.01 µM | –
CCS(=O)(=O)n1nc(C(=O)N2CCOCC2)nc1N | inconclusive: 0.1 µM [activator, full curve] | –
Nc1ccnc(Oc2ccc(F)cc2)c1 | – | inactive: -3.23%
CCOC(=O)N1CCN(C(=O)c2cn(C)c3ccc(S(=O)(=O)N4CCCC4)cc3c2=O)CC1 | inconclusive: 35.5 µM [activator, partial curve, poor fit] | –
CNC(=O)c1ccc(-c2ccc(OC)cc2)s1 | active: 17.8 µM | –
Cc1ccc(NC(=O)Nc2ccc3oc(C)nc3c2)cc1 | active: 11.2 µM | –
CCN(CC)C(=O)c1sc(N2C(=O)Nc3ccccc3N2O)c(C(=O)OC)c1C | – | inactive: -22.4%
Cc1cc2n(n1)C(c1ccsc1)Nc1ccccc1-2 (configuration not stated) | inconclusive: 17.8 µM [activator, partial curve, poor fit] | –
COc1ccc(C)cc1NC(=O)CSc1nnc(CC(=O)Nc2ccccc2C)n1C | inconclusive: 0.1 µM [activator, full curve, poor fit] | –
CCOC(=O)c1c(C)oc2c1c(C(c1ccccc1)N1CCOCC1)c(O)c1ccccc12 (configuration not stated) | inconclusive: 25.1 µM [activator, single point] | –
CC(C)(C)NC(=O)C(=O)N/N=C/c1cccs1 | inconclusive: 22.4 µM [activator, single point] | –
C/C=C/C1=CC2=CC(=O)C(C)(OC(=O)c3c(C)cc(O)cc3O)C(=O)C2=CO1 (configuration not stated) | – | inactive: 4.05%
C/C(=N/OC(=O)CC(C)C)c1cc(-c2ccc(Cl)cc2)no1 | active: 17.8 µM | –
O=C(Nc1ccc(N2CCOCC2)cc1)C1CCN(S(=O)(=O)Cc2ccccc2)CC1 | inconclusive: 14.1 µM [activator, partial curve, poor fit] | –
O=C(CN1C(=O)CC(c2ccco2)Sc2ccccc21)NCc1ccc2c(c1)OCO2 (configuration not stated) | inconclusive: 2.82 µM [activator, partial curve] | –
COc1cccc(CNc2ccccc2O)c1OCc1ccccc1F | – | inactive: 4.23%
CC1CCCN(CCC(=O)Nc2ccc(Br)cc2)C1 (configuration not stated) | inconclusive: 0.631 µM [activator, full curve, poor fit] | –
COc1ccc2nc(NC(=O)c3cccnc3SC)sc2c1 | inconclusive: 35.5 µM [activator, single point] | –

SMILES | Potency | activity change, positive = activation
COC(=O)c1c(S(C)(=O)=O)nc(-c2ccccc2)[nH]c1=O | inconclusive: 10 µM [activator, partial curve, poor fit] | –
CC(C)C[C@@H](CC(=O)N[C@@H](CCCN)CC(=O)N[C@@H]1CCCC[C@H]1C(=O)N[C@H](CC(=O)N[C@@H](CCC(=O)O)CC(=O)O)CC(C)C)NC(=O)[C@@H]1CCCC[C@H]1N | – | inactive: 5.52%
Cc1nc2ccccc2c(-c2ccccc2)c1CC(=O)O | inconclusive: 0.02 µM [activator, full curve, poor fit] | –
O=C(NC1CCCCC1)c1ccc(N2CCCC2=O)cc1 | inconclusive: 1.58 µM [activator, partial curve] | –
O=c1oc2ccccc2cc1-c1nnc(-c2cccc(Br)c2)o1 | inconclusive: 17.8 µM [activator, partial curve, poor fit] | –
NC(=O)CSc1nnc(-c2ccc3c(c2)OCO3)o1 | active: 12.6 µM | –
O=C(/C=C/c1ccco1)Nc1cccnc1 | inconclusive: 14.1 µM [activator, single point] | –
Cc1cccc(NC(=S)NNC(=O)c2ccccc2OC(F)F)c1 | inconclusive: 2.82 µM [activator, single point] | –
C=CCN1c2ccccc2[C@]23C[C@@H](C(=O)OC)N(S(=O)(=O)c4ccc(C)cc4)C2=NC(C(=O)OC)=C(C(=O)OC)[C@H]13 | inconclusive: 0.0282 µM [activator, full curve, poor fit] | –
Cc1ccc2oc(-c3ccc(C)c(NC(=S)NC(=O)c4cccs4)c3)nc2c1 | inconclusive: 17.8 µM [activator, partial curve] | –
C(=N\Nc1ccccn1)/c1ccc(N2CCOCC2)cc1 | active: 12.6 µM | –
COc1ccc(C(=O)N=c2sc3ccccc3n2C)cc1OC | active: 17.8 µM | –
CSc1c(CC(=O)NCCO)n(C)c2ccccc12 | inconclusive: 0.891 µM [activator, full curve, poor fit] | –
O=C(COC(=O)c1cccnc1)Nc1cccc(Cl)c1 | – | inactive: -5.22%
CCOC(=O)Oc1ccc2c(=O)c(Oc3cccc(C)c3)coc2c1 | – | inactive: 1.71%
O=C(Nc1ccccc1)Nc1ccc2ncoc2c1 | active: 11.2 µM | –
c1csc(CNc2ccc3c(c2)OCCO3)c1 | – | inactive: -10.9%
OC(COc1cccc(OCC(O)CN2CCCC2)c1)CN1CCCC1 (configuration not stated) | inconclusive: 35.5 µM [activator, single point] | –
CCN(CC)CCNC(=O)c1cc2c(=O)oc3ccc(C)cc3c2s1 | – | inactive: -6.23%
Cc1sc(NC(=S)NC(=O)C(C)(C)C)c(C(N)=O)c1C | inconclusive: 14.1 µM [activator, partial curve, poor fit] | –
C/C(=N\NC(=O)C(N)=O)c1ccc(NC(=O)c2cccs2)cc1 | inconclusive: 11.2 µM [activator, partial curve, poor fit] | –
Cc1ccc(N2CCN(S(=O)(=O)N(C)C)CC2)cc1Cl | inconclusive: 0.0708 µM [activator, full curve, poor fit] | –
O=C(Nn1cnnc1)c1csc2ccccc12 | inconclusive: 22.4 µM [activator, partial curve, poor fit] | –
